The list shows a part of the results.

In the assay the test system is T1, C. trachomatis L2/434/Bu expressing GFP (CTL2-GFP).
T1 construct: L2/434/Bu GFP intracellular growth in HeLa cells
More on the design: species or system HeLa; C. trachomatis total inclusion area by high-content imaging, normalised to DMSO. The conditions noted are these: total inclusion area; 28.5 h, 10 µM; inhibitor. The method in brief:
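Host cell viability was gauged from Hoechst-stained nuclei counts, while chlamydial growth was taken from total inclusion area and inclusion number per well. Cells were fixed and imaged by high-content microscopy once bulk GFP and resorufin fluorescence had been measured.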
With `OCCCNC(=S)Nc1ccc(Cl)cc1Cl` [CBK265264], the “% of control remaining” value turned out to be 105.405. The result for `COc1ccc(-n2nc3cc(C)c(NC(=O)c4ccc(-c5ccc([N+](=O)[O-])cc5OC)o4)cc3n2)cc1` [CBK263766] reads 113.042; that for `CCS(=O)(=O)N1CCC2(C=Cc3cc(F)ccc3O2)CC1` [CBK284747], 92.9564. As for `CCCC1COC(c2ccc(C#N)cc2)OC1` (stereo not shown) [CBK033941], the figure is 75.1792; as for `COc1ccccc1C(=O)N1CCC(Cc2ccc(-c3ccccc3)cc2)(C(N)=O)CC1` [CBK285774], 101.224; as for `Cc1nc2c(OCC(=O)c3ccc(Cl)cc3Cl)cccn2c1N(C)CC1CC1` [CBK147294], 107.025. Turning to `Cn1nc(C2CCN(C(=O)C3CCCC3)CC2)c2cccnc21` [CBK284899], the “% of control remaining” value stood at 56.7332. For the molecule `O=C(NCC(O)c1ccccc1)c1ccc(Cl)c(S(=O)(=O)N2CCCCC2)c1` (stereo not shown) [CBK269197], the “% of control remaining” value was 71.2395. Regarding `CC(c1ccc(F)c(F)c1)N(C)C(=O)CN1CCCc2occc2C1` (stereo not shown) [CBK304456], the “% of control remaining” value came out at 42.5253. As for `CCOC(=O)c1c(C)n(-c2ccc(OC)cc2)c2ccc(O)c(CN(C)C)c12` [CBK261609C], the figure is 99.6711.

Consider `CC(=O)Nc1ccc(CN2CCCCCC2c2cc(C)no2)cc1` (stereo not shown) [CBK285415], for which the “% of control remaining” value came to 102.362. Turning to `CCOc1ccc(-c2cncc(Nc3ccc(C#N)cc3)n2)cc1` [CBK065862], the “% of control remaining” value is 83.2839. The result for `COc1ccccc1-c1noc(CCCC(=O)Nc2cccnc2)n1` [CBK268848] reads 98.3145; that for `CCCCn1c(SCC(=O)NCC2(c3ccc4c(c3)OCCO4)CCCC2)n[nH]c1=O` [CBK296736], 115.611.

As for `Cc1sc2ncn(Cc3c(Cl)cccc3Cl)c(=O)c2c1C` [CBK265355], the “% of control remaining” value is recorded as 92.8922. The result for `CCn1cc(C2CN(S(=O)(=O)c3c(C)c(C)cc(C)c3C)CCO2)cn1` (stereo not shown) [CBK306171] reads 53.1835; that for `C[C@H]1CN([C@H]2C[C@@H](O)[C@@H](CO)O2)C(=O)NC1=O` [CBK201206], 90.1031.

Regarding `CCc1[nH]c2ccc(C(=O)NCCn3ccnc3C)cc2c1C` [CBK282505], the “% of control remaining” value was 111.778. For the molecule `Cc1cccc(C)c1N(C1CCNCC1)S(=O)(=O)c1ccc2c(c1)CCO2` [CBK153668T], the “% of control remaining” value is reported as 106.5. As for `c1cncc(-c2cncc(NCCc3c[nH]c4ccccc34)n2)c1` [CBK065186], the figure is 91.8411. In the case of `NC(=O)CSc1nnc(-c2cc3ccccc3o2)n1Cc1ccccc1` [CBK268964], the “% of control remaining” value is on record as 86.6173. As for `Cc1ccc(CN2C(=O)CC(Sc3ncccc3C(=O)O)C2=O)cc1` (stereo not shown) [CBK270006], the figure is 85.5825. The result for `CCOc1ccccc1NC(=O)NC(=O)C1CCN(C(C)c2ccc(Cl)cc2)CC1` (stereo not shown) [CBK034899] reads 92.5028. As for `Nc1nc(CN2C(=O)c3ccccc3C2=O)n[nH]1` [CBK266655], the figure is 90.864; as for `Cc1ccn(CCNC(=O)c2cc(-c3cccs3)no2)n1` [CBK282679], 119.061. In the case of `CN(C)c1cccc(-c2cncc(NCCCO)n2)c1` [CBK065619], the “% of control remaining” value is given as 66.3923. The result for `CSc1nc(C)c(CCC(=O)Nc2ccc(N3CC(C)OC(C)C3)nc2)c(C)n1` (stereo not shown) [CBK298266] reads 100.563. As for `O=C(O)C(c1c[nH]c2ccccc12)N1CCc2ccccc2C1` (stereo not shown) [CBK286664], the figure is 63.46; as for `COc1cc(C(C[N+](=O)[O-])c2c(C)[nH]c3ccccc23)ccc1O` (stereo not shown) [CBK115317], 97.1952; as for `CC(C)C(=O)NCCn1nc(-c2ccccc2F)cc1CN(C)C` [CBK281693], 94.9767. The result for `CCn1nc(C)c(-c2cncn2Cc2ccccc2CN(C)C)c1C` [CBK281998] reads 94.1954; that for `COc1ccc2c3c(cc(Cl)cc13)CC(N)C2` (stereo not shown) [CBK016450C], 45.5037. As to `CCNC(=O)Nc1c[nH]nc1C1CCCN(c2cccc(F)c2C#N)C1` (stereo not shown) [CBK306406], the “% of control remaining” value came to 77.7888. As for `Cc1nn(-c2ccccn2)c(C)c1[C@@H]1C=C[C@@H](NS(C)(=O)=O)C1` [CBK289169], the figure is 117.241; as for `CC(=O)Nc1cccc(NC(=O)c2ccc(CN3CCCCC3)cc2)c1` [CBK295596], 101.363; as for `CC(=O)Nc1ccc(S(=O)(=O)N2CCCCC2C(=O)O)cc1` (stereo not shown) [CBK265241], 72.1237. The result for `FC(F)(F)c1ccc(SCc2ccc(Cl)c(Cl)c2)nc1` [CBK103713] reads 82.0116; that for `Cc1nc(NC(=O)Cn2nc(N3CCSCC3)ccc2=O)sc1C` [CBK307622], 84.8755; that for `COC(=O)c1cc(=O)c2ccccc2o1` [CBK000064], 32.3596. The result for `COc1ccc(-n2c(=O)[nH]cc(C(=O)Nc3cc(C)ccc3OC)c2=O)cc1` [CBK287548] reads 82.1585.
